From PubChem BioAssay AID493208 (National Center for Advancing Translational Sciences (NCATS), 2011)
Screen size: about 44,000 compounds; about 340 (0.77%) were called active. Not shown: some 5% with an inconclusive outcome. The call rests on the fitted dose curve; in most records, active means well fitted inhibition curve with a large enough effect; inconclusive means small, poorly fitted or top-dose-only effect; inactive means flat fitted curve, though single readings scatter. Some of the results follow.

Assay: Acumen qHTS Assay for Inhibitors of the mTORC1 Signaling Pathway in MEF (Tsc2-/-, p53-/-) Cells: Sytravon;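 further: plate controls were DMSO for no effect and rapamycin for full effect; nearly all actives have a fitted effect of over 50% in size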
Conditions: phospho-rpS6 immunofluorescence/PI, 24 h; series mostly up to 38.3 µM; activity change, negative = inhibition: at the top concentration
How it was run: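 Plate MEFs (Tsc2-/-, p53-/-, empty vector) in DMEM/10% FBS; after 24 h add compound, incubate 24 h at 37 degree Celsius; fix in PFA/TX-100, block, stain phospho-rpS6 and 10 uM PI; scan at 488 nm; report % positive cells.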

Activity change, negative = inhibition, inactive:
CCOc1ccc(CNC(=O)CCS(=O)(=O)c2cc3c(cc2Cl)NC(=O)CO3)cc1OC -6.16%
O=C(Nc1ccc(N2CCC(c3ccccc3)C2)c(C(=O)O)c1)c1ccc(Cl)cc1 (stereo not given) -6.56%
COc1cccc(NC(=O)CCc2c(C)nc3c4cccnc4nn3c2C)c1 0.999%
CCOc1ccc(Oc2nc(NCC(C)C)nc(NC(C)(C)C)n2)nn1 -2.39%
COc1ccccc1OCC(=O)N(Cc1ccc(Cl)cc1)CC1CCCO1 (stereo not given) -1.68%
CCc1cccc(CC)c1NC(=O)c1ccc2c(c1)CCN2S(=O)(=O)c1ccccc1 -1.19%
Cc1cccc(NC(=O)CN2C(=O)c3cccnc3Oc3ccc(Cl)cc32)c1C -1.22%
CSc1ccc(CCNC(=O)CCCn2nc(C)c3sc4ccccc4c3c2=O)cc1 1.89%
COCCCNc1ncnc2onc(-c3ccc(F)cc3)c12 -0.408%
COCCCNC(=O)CN1C(=O)COc2ccc(S(=O)(=O)N3CCCC3)cc21 -0.137%
COc1ccc(C(=O)NCCn2cc(SCC(=O)NCCc3ccc(OC)c(OC)c3)c3ccccc32)cc1 -3.04%
COc1cccc(NC(=O)Cn2cnc3c(nc4n3CCCCC4)c2=O)c1 5.83%
Cc1ccc(NC(=O)Cn2c(=O)c3cc(Cl)ccc3n3nncc23)cc1 -1.57%
Cc1n[nH]c(C)c1S(=O)(=O)N(CC(=O)NC(C)c1ccccc1)c1ccc(C(C)C)cc1 (stereo not given) -4.71%
CC1=C(c2ccc(C)c(C)c2)S(=O)(=O)N=C1N1CCC(C(=O)NCCc2ccco2)CC1 -12.9%
Cc1ccc(-c2cc(C(=O)N3CCN(S(=O)(=O)c4ccc(Br)cc4)CC3)[nH]n2)cc1C 0.94%
CS(=O)(=O)N1CCc2cc(C(=O)NCCc3ccccc3)ccc21 2.99%
CCC(=O)NCC(c1ccc2c(c1)OCO2)N1CCN(c2ccccc2)CC1 (stereo not given) 0.446%
Cc1nc2ccccc2c(=O)n1-c1ccc(NC(=O)c2ccc([N+](=O)[O-])cc2)cc1 -7.95%
CCOc1ccc(NCc2cccn2-c2nnc(N3CCC(C(=O)NCCc4ccc(OC)c(OC)c4)CC3)s2)cc1 -9.16%
Cc1ccccc1CNC(=O)C(=O)NCC(c1ccco1)S(=O)(=O)c1ccccc1 (stereo not given) 2.9%
COc1ccc(C(=O)Nc2nnc(S(=O)(=O)N(C)c3ccc(Cl)cc3)s2)cc1OC 9%
Cc1ccc(CCNC(=O)c2cn(C)c3ccc(S(=O)(=O)N4CCCCC4)cc3c2=O)cc1 -6.39%
CCCS(=O)(=O)N1CCCC(C(=O)NCCCOC)C1 (stereo not given) 8.29%
Cc1ccc2[nH]c(CSc3nnc(NC(=O)c4ccccc4C)s3)cc(=O)c2c1 8.58%
COc1cc(OC)cc(C(=O)Nc2ccc3c(c2)N(C2CCCC2)C(=O)c2ccccc2S3)c1 -10.5%
O=C(NCc1ccccc1Cl)c1cc2ccccc2o1 -1.73%
O=C(CSc1nc2ccccc2nc1Cc1ccccc1)N1CCCCC1 -18.2%
CCc1cccc(NC(=O)CCS(=O)(=O)c2cc(Br)cc3c2N(C(C)=O)CC3)c1 11.1%
CCc1ccc(C2CC(=O)Nc3c2c(C)nn3-c2nc(C)cc(C)n2)cc1 (stereo not given) -7.11%
CCOc1ccc(-c2nnc(SCC(=O)NCc3ccccc3)nc2-c2ccc(OCC)c(OC)c2)cc1OC -9.66%
CCOc1ccccc1NC(=O)N1CCN(Cc2nc3ccc(C)cc3o2)CC1 0%
Cc1ccc(C)c(N2CCN(S(=O)(=O)c3c(C)nc4sccn4c3=O)CC2)c1 -1.36%
Cc1cc(C)cc(-n2c(SCC(N)=O)nc3c(oc4ccccc43)c2=O)c1 -7.54%
CCCCOc1cccc(C(=O)Nc2ccc3oc(-c4cccnc4)nc3c2)c1 -2.78%
COc1cccc(Nc2c3c(nc4nncn24)CCC3)c1 -4.36%
CCOc1ccccc1NC(=O)Cn1cnc2sc(C)c(S(=O)(=O)N3CCC(C)CC3)c2c1=O 3.19%
Cc1cccc(C)c1Nc1sc(C(=O)c2ccccc2)c(N)c1C(=O)Nc1ccc(F)cc1 -6.38%
CCOc1ccccc1NC(=O)Cn1c(=O)n(Cc2ccccc2)c(=O)c2c(C)c(C)sc21 -15.2%
O=C(Nc1nc2n(n1)C(c1ccccc1)C=C(c1ccccc1)N2)c1ccc(Cl)c([N+](=O)[O-])c1 (stereo not given) 3.24%
CCC(C)NC(=O)Cn1ncc2c([nH]c3ccc(C)cc32)c1=O (stereo not given) -1.7%
CCOC(=O)c1[nH]c(C)c(CCC(=O)NCc2ccc(OCC)cc2)c1C -16.9%
COc1ccc2c(C)c(CC(=O)NCc3ccc(C)cc3)c(=O)oc2c1OC 7.02%
CC(C)OCCCNC(=O)c1cc2c(-c3ccc(Cl)cc3)nn(C)c2s1 1.15%
COc1cc(NC(=O)C2CCCN(S(=O)(=O)c3ccc4c(c3)oc(=O)n4C)C2)c(C(=O)O)cc1OC (stereo not given) 0.861%
CCCCC(Sc1nc2cc3c(cc2c(=O)n1CCCC(=O)NCc1ccc(OC)cc1)OCO3)C(=O)OCC (stereo not given) -12.8%
CCc1ccc(NC(=O)C(=O)NCCc2csc(-c3ccc(C(F)(F)F)cc3)n2)cc1 -8.51%
O=C(NCc1ccccc1F)c1ccc(CN2CC(=O)N3CCCCC3C2=O)cc1 (stereo not given) -12.1%
Cc1cc(C)c(NC(=O)Cn2c(=O)n(Cc3ccc4c(c3)OCO4)c(=O)c3ccc(C(=O)NC4CCCCC4)cc32)c(C)c1 -1.56%
COc1cccc(C(=O)N2c3cc(C)ccc3C(C)(c3ccccc3)CC2(C)C)c1 (stereo not given) 3.06%
N#C/C(=C\c1ccc(Cl)cc1)c1nc(-c2cc3ccccc3oc2=O)cs1 -4.61%
CCOC(=O)c1sc2cccc(F)c2c1S(=O)(=O)N1CCN(c2cccc(Cl)c2)CC1 0.682%
CCc1ccc(CNC(=O)c2cnc3sc4cc(OC)ccc4n3c2=O)cc1 1.28%
CCCn1c2ccccc2c2cnn(CC(=O)N3CCC(C)CC3)c(=O)c21 4.72%
COc1ccc(Nc2ncc3c(n2)CCN(Cc2cc(Br)cs2)C3)c(OC)c1 4.22%
CCOC(=O)c1ccc(N2CCN(c3cc(C)ccc3C)CC2)c(NC(=O)Nc2ccccc2)c1 8.67%
COc1ccccc1NC(=O)c1cc2c(=O)oc3ccc(C)cc3c2s1 -5.03%
O=C(O)CSc1c2c(nc3cc(C(=O)Nc4ccc(F)c(Cl)c4)ccc13)CCC2 2.04%
CCCCOc1ccccc1C(=O)N(Cc1ccc(C)o1)C1CCS(=O)(=O)C1 (stereo not given) -4.54%
Cc1ccc(NC(=O)CSc2nc3c(oc4ccccc43)c(=O)n2-c2ccc(F)cc2)c(C)c1 -0.246%
C=Cc1ccc(Cn2nc(-c3ccc(C)c(S(=O)(=O)N(CC)CC)c3)ccc2=O)cc1 -15.2%
Cn1nc(-c2ccc(C(=O)Nc3ccc(F)cc3)cc2)c2ccccc2c1=O 1.25%
COCCCNC(=O)CCCCn1c(=O)c2ccccc2n(CC(=O)Nc2ccc(C)cc2C)c1=O -23.9%
Cc1cccn2c(=O)c3cc(C#N)c(=O)n(-c4nnc(SCc5ccccc5F)s4)c3nc12 -2.3%
COCCNC(=O)CSc1nc2cc3c(cc2c(=O)n1CCCCCC(=O)NCc1ccc(OC)cc1)OCO3 -1.22%
COc1ccc(CNC(=O)c2ccc3c(c2)nc2n3CCC(C)C2)c(OC)c1 (stereo not given) 4.19%
CC(C)c1ccc(S(=O)(=O)NCc2ccc3c(c2)CCN3C(=O)c2ccccc2)cc1 4.47%
CCOc1ccccc1NC(=O)Cn1nnc2sc(-c3ccccc3)cc2c1=O 0.0994%
CC(C(=O)NCc1ccccc1F)n1ccc2cc(S(=O)(=O)N3CCCC3)ccc21 (stereo not given) -3.97%
COc1ccc(Br)cc1C(=O)Nc1nc2ccc(F)cc2s1 6.19%
CCOc1ccccc1NC(=O)c1c(NC(=O)c2cccc(C)c2)sc2c1CCCC2 5.33%
CCc1ccccc1NC(=O)Nc1cc(C(=O)NCc2ccc(C)cc2)ccc1N1CCCC1 2.74%
O=C(Nc1ccc(C(F)(F)F)cc1)C1CCCN(c2cnccn2)C1 (stereo not given) -3.99%
O=C(Nc1ccccc1Cl)N1CCC(CN2CCCCC2)CC1 -6.23%
CC1CN(C(=O)Nc2ccc(C(=O)NCc3cccc(F)c3)cc2)c2ccccc2S1 (stereo not given) -1.43%
O=c1c(S(=O)(=O)c2ccccc2)cn(Cc2ccccc2)c2cc(N3CCOCC3)c(F)cc12 -12.3%
COc1ccc(N2CCN(c3oc(/C=C/c4cc(OC)c(OC)c(OC)c4)nc3C#N)CC2)cc1 -1.15%
COc1cc(C(=O)Nc2ccc3oc(-c4ccc(C)c(Br)c4)nc3c2)cc(OC)c1OC 13.9%
COc1ccc(F)cc1S(=O)(=O)NCCc1sc2nc(-c3ccc(F)cc3)nn2c1C -3.13%
CCc1nnc(SCC(=O)Nc2ccc(F)cc2F)c2cc3sc(C)cc3n12 -2.33%
CCOC(=O)c1ccccc1NC(=O)N(C)CCc1c(C)nn(CC)c1C 0%
Cc1cc(C)cc(Oc2nc3c(c(=O)n(C)c(=O)n3C)n2Cc2ccc(F)cc2)c1 -2.93%
Cc1cc(C)c2c(CC(=O)Nc3c(C(=O)Nc4ccc(Cl)cc4)oc4ccccc34)coc2c1 5.78%
COc1ccc(CNC(=O)CN2C(=O)c3cccnc3Oc3ccc(C)cc32)cc1 -15.2%
Cc1cc(OCC(=O)N(Cc2sccc2C)C2CCS(=O)(=O)C2)ccc1Cl (stereo not given) 1.2%
COc1ccc(Nc2cc(C(=O)NCc3ccccc3OC)c3ccccc3n2)cc1 -5.76%
CCCSCCCNC(=O)c1ccc2nc(Cc3ccccc3)oc2c1 -3.23%
CCSc1ncc(Cl)c(C(=O)Nc2ccc(S(=O)(=O)N(C)c3ccccc3)cc2)n1 -3.08%
Cc1cc(Nc2cccc(Cl)c2)nc2ccc(NC(=O)c3cccnc3)cc12 -3.19%
CCc1ccc(CNC(=O)CN2CCSc3ccccc32)cc1 9.98%
Cc1ccc(NC(=O)C(=O)NCC2(c3ccccc3)CCCC2)cc1Cl 1.05%
O=C(NCCc1ccccc1)c1cnn(-c2ccc(F)cc2)c1-n1cccc1 -6.05%
CCOC(=O)N1CCc2c(sc3c2c(=O)n(CCc2ccccc2)c(=O)n3Cc2c(F)cccc2Cl)C1 2.47%
O=C(CN1C(=O)COc2ccc(S(=O)(=O)N3CCCCCC3)cc21)NCc1ccc(F)cc1 -9.07%
Cc1cc(C)c2c(CC(=O)N(Cc3ccccc3)C3CCS(=O)(=O)C3)coc2c1 (stereo not given) -6.84%
